{"source": "PubChem BioAssay AID651567", "about": "(National Center for Advancing Translational Sciences (NCATS), 2012)", "note": "Screen size: about 1,200 compounds; about 10 (0.8%) were called active. Roughly 4% stayed inconclusive and do not appear here. The call rests on the fitted dose curve; in most records, active means well fitted inhibition curve with a large enough effect; inconclusive means small, poorly fitted or top-dose-only effect; inactive means no such curve, though single readings can be large or run the other way. The list shows a part of the results. On the % scale 0 is the no-effect control and ±100 the full control effect.", "data": [{"assay": "qHTS Assay to Find Inhibitors of Chronic Active B-Cell Receptor Signaling: Hit Validation in OCI-Ly3 Assay", "conditions": "OCI-Ly3 IkB-luciferase reporter, Chroma-Glo luminescence, 4 h; at 46.1 µM (top of the series)", "source_text": "Diffuse large B-cell lymphoma (DLBCL) is the most common category of non-Hodgkin lymphoma, with ~20,000 new cases per year in the United States. DLBCL should be regarded as a collection of different neoplasms. Microarray gene expression analysis has defined two principal types of DLBCL, named for their similarity to normal B cell stages or activation states: a germinal center B-cell (GCB) type, and an activated B-cell (ABC) type. In ABC-DLBCL, a constitutive high-level activity of the NF-kappaB family of transcription factors has been observed (1) and NF-kappaB target genes are more highly expressed in ABC primary tumors than in GCB tumors. Functional studies have shown a constitutive high-level activity of the IkappaB (inhibitor of kappa-B) kinase (IKK) complex. […] Further analysis of DLBCL primary tumors for NF-kappaB target gene expression imply that although CARD11 is required for constitutive IKK activity in all ABC-DLBCL lines, mutations in CARD11 may be the root cause of IKK activation only in lines or tumors with such mutations. In other words, CARD11 mutations may explain NF-kappaB activation in only 10% of ABC-DLBCL cases. […] This process has been termed 'chronic active BCR signaling' (CABS). The goal of this screen is to find small-molecule inhibitors of the CABS pathway found in ABC-DLBCL lines using a cell-based assay that measures IkappaBalpa stability, which has already been extensively validated in the OCI-Ly3 line (PubChem AID:445; REF: 4). […] Hits from the primary screen were tested in this selectivity secondary assay. NIH Molecular Libraries Probe Production Network [MLPCN] NIH Chemical Genomics Center [NCGC] MLPCN Grant: R03 DA031086 PI Name: Dr. R. Eric Davis\nCells were seeded in 1536-well plates at 5000 cells/3ul in IMDM medium containing 0.5% FBS, w/o phenol red, L-glutamine, 25 mM HEPES, 3 mg/ml sodium bicarbonate. After centrifugation for 1 min. at 1000 rpm, 23 nl of compounds or DMSO were delivered to each well using a pin tool. Then 1ul 80ng/ml doxycycline was dispensed into white solid 1536-well plates and the plates were incubated at 37C/5% C02 in a cell incubator for 4 hrs. Then 4 ul Chroma-Glo luminescent substrate mix (Promega) was added to each well. The plate was incubated at R.T. for 10-15 min. The plates were measured on a ViewLux plate reader for green luminescence (540/20 nm filter) and red luminescence (618/8 nm filter). The green and red luminescent signals were corrected for red and green luminescence filter overlap using previously determined filter calibration constants (determined using the procedure outlined in the Promega Technical Manual). The %Activity was determined from the ratio of corrected green/red luminescent values. Green luminescent and ratio %Activity was determined by normalizing to the difference in signal between basal cells (0% Activity) and cells incubated with 10 uM of the proteasome inhibitor MG-132 (100% Activity). Red luminescent %Activity was normalized to the difference between red luminesence in basal cells (0%Activity) and zero luminescence (-100% Activity). Concentration-response curves were fitted to the signals arising from the green luminescence (I-kappa-B-alpha-luciferase fusion; IkB-luc) and the red luminescence (unfused luciferase; luc) as well as the calculated ratio. The concentration-effect curves were then classified based on curve quality (r2), response magnitude and degree of measured activity. Compounds were then categorized based on their concentration-response curves for all three datasets (Ikb-luc, luc and ratio).", "values": [{"smiles": "COc1cc2c3cc1Oc1cc(ccc1O)C[C@@H]1c4c(cc(OC)c(O)c4Oc4ccc(cc4)C[C@H]3N(C)CC2)CCN1C", "activity change, negative = inhibition": "inactive: 1.05%"}, {"smiles": "CC(C)CCCn1c(O)c(/C=C2/C=CC=N2)c(=O)[nH]c1=O", "activity change, negative = inhibition": "inactive: -0.841%"}, {"smiles": "O=C(NC1CCCCC1)Oc1cc2oc(=O)sc2cc1Cl", "activity change, negative = inhibition": "inactive: -9.28%"}, {"smiles": "CCCCOCCCn1c(N)c(C(=O)OCCOC)c2nc3ccccc3nc21", "activity change, negative = inhibition": "inactive: -2.82%"}, {"smiles": "CCc1ccccc1N1C(=O)/C(=C/c2ccc(N3CCN(C)CC3)o2)C(=O)NC1=S", "activity change, negative = inhibition": "inactive: -0.121%"}, {"smiles": "COc1cc(C2c3cc4c(cc3CC3COC(=O)C32)OCO4)cc(OC)c1OC", "note": "(stereo unspecified)", "activity change, negative = inhibition": "inactive: -1.42%"}, {"smiles": "COc1cc(/C=C/[N+](=O)[O-])ccc1O", "activity change, negative = inhibition": "inactive: 0.135%"}, {"smiles": "CN(C)C(=S)SSC(=S)N(C)C", "activity change, negative = inhibition": "inactive: -12.9%"}, {"smiles": "CCCC[C@@H](C)C[C@@H](C)C(=O)N(C)[C@@H](CC(C)C)C(=O)N[C@H](C(=O)N(C)[C@H](C(=O)N1C[C@@H](O)C[C@H]1C(=O)N1C(=O)C=C[C@@H]1C)C(C)C)C(C)OC(C)=O", "note": "(stereo partly specified)", "activity change, negative = inhibition": "inactive: -0.338%"}, {"smiles": "CCNC(=O)[C@H]1O[C@@H](n2cnc3c(N)ncnc32)[C@H](O)[C@@H]1O", "activity change, negative = inhibition": "inactive: -1.68%"}, {"smiles": "C/C(=N\\N1CCCCC1)c1c(O)[nH]c(=O)[nH]c1=O", "activity change, negative = inhibition": "inactive: 0.0656%"}, {"smiles": "COc1ccc(C=C2C(=O)N(C)C(=O)N(C)C2=O)cc1COc1ccc(NC(C)=O)cc1", "activity change, negative = inhibition": "inactive: 0.249%"}, {"smiles": "CC[C@]12CC[C@H](O)CC1=CCC1C2CC[C@]2(C)C(=O)CCC12", "note": "(stereo partly specified)", "activity change, negative = inhibition": "inactive: -0.803%"}, {"smiles": "COc1ccc(Cc2nccc3cc(OC)c(OC)cc23)cc1OC", "activity change, negative = inhibition": "inactive: -0.352%"}, {"smiles": "O=C1C(=O)c2cccc3cccc1c23", "activity change, negative = inhibition": "inactive: -20.7%"}, {"smiles": "COc1ccc(-c2nn(CCC#N)cc2C(=O)Nc2ccc(C(C)=O)cc2)cc1[N+](=O)[O-]", "activity change, negative = inhibition": "inactive: -0.983%"}, {"smiles": "C#CCOc1cc(C2C3=C(COC3=O)Nc3cc4c(cc32)OCO4)ccc1OC", "note": "(stereo unspecified)", "activity change, negative = inhibition": "inactive: -2.5%"}, {"smiles": "CCC(=NCCC(c1ccccc1)c1ccccc1)c1c(O)[nH]c(=O)[nH]c1=O", "activity change, negative = inhibition": "inactive: -2.95%"}, {"smiles": "O=c1c2ccccc2[se]n1-c1ccccc1", "activity change, negative = inhibition": "inactive: 22.5%"}, {"smiles": "C=CC[C@@H](CC/C=C/C=C/CC/C=C\\[C@@H]1CSC([C@@H]2C[C@@H]2C)=N1)OC", "activity change, negative = inhibition": "inactive: -12.7%"}, {"smiles": "COc1cc2c(c(OC)c1OC)-c1ccc(O)cc1[C@@H](NC(C)=O)CC2", "activity change, negative = inhibition": "inactive: -3.18%"}, {"smiles": "CN1C(=O)CN=C(c2ccc(Cl)cc2)c2cc(Cl)ccc21", "activity change, negative = inhibition": "inactive: -3.48%"}, {"smiles": "COc1ccc(C(=O)Oc2cccc3cccnc23)cc1S(=O)(=O)N1CCOCC1", "activity change, negative = inhibition": "inactive: -0.414%"}, {"smiles": "COc1cc2c(c(OC)c1OC)-c1ccc(O)c(=O)cc1C(NC(C)=O)CC2", "note": "(stereo unspecified)", "activity change, negative = inhibition": "inactive: -3.84%"}, {"smiles": "Cc1cc(C)c(C(=O)CN2CCOCC2)c(C)c1", "activity change, negative = inhibition": "inactive: -0.639%"}, {"smiles": "O=c1c2ccccc2nc(/C=C/c2ccc([N+](=O)[O-])o2)n1-c1ccc(O)cc1", "activity change, negative = inhibition": "inactive: 69.1%"}]}]}
